The full ranking holds about 2,700 sequences; the median of “arbitrary fluorescence units” is about 4,100, and the highest 2% start at about 54,000. Some of the results follow.
target: T1, ETS1 (UniProt P14921); assay: ETS1 binding intensity (PBM fluorescence) (arbitrary fluorescence units); higher = stronger binding; conditions: ETS1 concentration 10 nM
T1 sequence: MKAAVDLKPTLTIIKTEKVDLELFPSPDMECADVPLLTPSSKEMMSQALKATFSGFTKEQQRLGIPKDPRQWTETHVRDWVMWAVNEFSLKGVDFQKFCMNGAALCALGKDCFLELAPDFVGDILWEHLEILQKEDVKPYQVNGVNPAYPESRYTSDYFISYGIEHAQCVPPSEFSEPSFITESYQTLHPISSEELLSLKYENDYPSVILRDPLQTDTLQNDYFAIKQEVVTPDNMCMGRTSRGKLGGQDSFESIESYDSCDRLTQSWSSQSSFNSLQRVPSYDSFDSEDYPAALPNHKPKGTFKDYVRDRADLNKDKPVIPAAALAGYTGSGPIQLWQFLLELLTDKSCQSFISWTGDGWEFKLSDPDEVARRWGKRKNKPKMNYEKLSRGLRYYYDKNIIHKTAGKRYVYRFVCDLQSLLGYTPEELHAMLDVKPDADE
Experimental: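 gcPBM on wild-type 36-bp genomic probes with two neighbouring ETS1 sites (4-24 bp apart). Recombinant human ETS1 (10 nM) was detected with anti-ETS1 antibody fluorescence. Values are medians over 3 replicate spots. The probes sit in constant array flanks that are not printed.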

| Sequence | ETS1 binding intensity |
| --- | --- |
| AATGAGAAAATCGGAAACCCAGGAAGCTGCCCCAAT | 228 |
| TCCTCCGCTGACGGGAAGCAGGAAGTGGCGGCGGGC | 4820 |
| TGTATTTTCAGGATGTGGCAAGCGGATGTGGCTCAA | 2810 |
| CGGCTTCCTGACTTGCCCCACTCCCTCCTTCCGCCG | 13100 |
| GTACAAGACATCCTGTTTTACCACATCCTTGCCAAC | 17600 |
| CAGCGCGGCTTCCGCCGGGAGCCCGGAACCGAGCCC | 7120 |
| GGAGAGAGGCAGGAAGTCGACAGGAAGATGTACCTA | 8700 |
| ACAGACGGAACTGGCGCTCCCAAGAACTTCCGCTCG | 2840 |
| TTTGTCTAGTCATTTCCTCAGGAAACCCTTATGAGT | 990 |
| GTTAATTATTTCCTGCTCTCCAGGGAAGTGTTATTC | 19200 |
| TCGTCCGCGTATCGGAACAGGAAGGAAGTCTTGCCC | 574 |
| AAGGAAGAAGAGGAAGCAGAGCTTCCTTTACGGCGG | 795 |
| GGTTGGTGATTGGCAGGATCCTGGTATCCGCTAACA | 278 |
| TTGCTGATACTTCCTGTGGAGGGGATGTGGGAGTGG | 14700 |
| GGCAACCAGGAAGGGACAGCCGGGCATCCGCTGGGC | 867 |
| CATTCTTCCTGCAGACGCTTCTACACCAGGAAGGCA | 6440 |
| AGAGGTTCCGGACCGGCCTCAAGTCACTTCCGGGGC | 8380 |
| TTGCTATACGGAAGCACAGCTCACTTCCTGCTGGTT | 3560 |
| CTCCACCCCTGGAGGAAACAGGATGCCTTGGGACTT | 310 |
| CGCCTTCCGCAGGCTCGGCTGTCTCCACGGAAACCT | 3960 |
| AACAGGAAGTATTACATGAAGGAGAACAGGAAGTAA | 4850 |

| Sequence | ETS1 binding intensity |
| --- | --- |
| GCTGAACCCACATCCCTAGCACTTCCCTTTTGTGTC | 666 |
| CGGGCCCGGGGCGGAAAGCAGGAAGTCGATCCCGCG | 2040 |
| ACGTCACTTCCGGCGCCGGGGCTCACTTCCTGGTGC | 87500 |
| TCCCCGGGTTTTCCTGCTCTCCGGGAAGCCGCGAGG | 1420 |
| GCAAAGGCCTAGCAGGAAGGAAGCGAGCCTGGGGCC | 355 |
| GGTCGCATCCGGGGCGCCGCGGGACACTTCCGGTGA | 26100 |
| TACCTAAGTCTTCCGTGTGCACTTCCTCCTGCTTGA | 1210 |
| CCCAACTTCCTCCAGCCCAGCTGGGCTTCCTTTGTT | 8910 |
| GGGCAGGAAGTCTGCAGGGCAAGCTGCAGGATGTCA | 5270 |
| GGTAGAAGTCTCAGGATGCTTCCTGCAGAATGATGG | 785 |
| GGCACGTGGGCAGGAAGTTCTTCCTGGCGTCTGCCC | 7300 |
| GAATTTCCTGCTGTTCAAGGAACGAGACATCCTCCA | 40900 |
| GTGAGAGGAAGTCGGGCCGCGAAAGCTTCCTGAGGA | 2620 |
| TGGTGCCCCACCGGAAGGCCGGATGTGTTCCTATCA | 7070 |
| ACAACTTCCTGTTACACAAGACAGGTATTTCCTCAT | 59800 |
| TGGCGGAGGCGCCGGAAGTTTTCCGGCTTTCTGCTG | 4500 |
| ACTAGCTGCTACCGGAACCGGAAGCGGCTGCTCCAG | 9620 |
| ATCCTCTGCACAGGAAGTATTTCCTCTTTACTGAGG | 8000 |
| CAGGCCGGCTTCCTGGGACGCCTCTTCCTGGCCACC | 4380 |
| GCGCGTTTCCCGCCTGAGGCGGTTACGGAAACGCGG | 5790 |
| TGTTGCGACTGGCATCCGCATCCGGCAGATGTAGAT | 5600 |

| Sequence | ETS1 binding intensity |
| --- | --- |
| CGGCTCGAGCCCCGGATGAGGAAGTGGTGCGGCCAC | 564 |
| AGACACTGAATCAGGATGTTTCCTGGAGTGCAGGGA | 556 |
| GAGCTGGCAGGAACCAGCCGAACAGGAAGCGGGCGC | 859 |
| AGGCAGGAAGTACCGCCTGATGCTCAGCTTCCGCTG | 9880 |
| CGCAGCCTCCTGACTTCCCTTCCTGTCCTCAGCGGC | 3470 |
| GCATACAAGCCACATCCTCCTTCCTGTGATAACAAG | 7100 |
| AAGTGACATCCGAGGGGAGCCCTCGGGGAAGTCAGA | 558 |
| TGCAATTTCCTGTCTTGTCCCAATATTTCCTGTTAA | 29000 |
| TGTGATTTTCCATCCTGCCATTTCCTGGCACCCAGA | 4620 |
| TGGAAATTACTTCCGTTAGTTGCTTCCTTATCTTTA | 19600 |
| GAGCGAACCGGGAAACGGCACCGGAAGCCCGGAGGT | 5900 |
| ATAGACAGGATGTGACTTCATCAAAGGAAATGCTTC | 9400 |
| CCCAGCTAAAGGAAGTCTGGCACTTCCTCTCCTCAA | 2990 |
| CAACGCGGGCTTCCTGACTCCACATCCTGCTCGTCC | 5700 |
| CGGCTTCTCCGGAAACGGCTTTTTCCGGTGACACCC | 11100 |
| TGGTTTCCTCTTTGGGACTACGTCTTCAGGATGGCA | 6600 |
| GCCTTTGCAAACAGGAAACAGGAAACACACCTACAA | 6950 |
| AAGGCGGAAACACGCACCATGGTGACTTTCCGGCCT | 2440 |
| GCTGAAGGAAGGGGGCGGAGGCCCCCGGAAAAGGGC | 190 |
| TTGCTACACCGGAAAACCTCCGTTTCCTATTCCAGG | 4980 |
| ATGTTTCCTTGTTCAGAGTATTTATCACATCCTGTA | 3380 |

— the supplement of paper PMC10681739
